Laboratory results as given in patent US20220177547A1 (KYUNGPOOK NATIONAL UNIVERSITY INDUSTRY ACADEMIC COOPERATION …, published 2022).

Molecular target: T1, TRAIL (TNF-related apoptosis inducing ligand) (human, UniProt P50591 114-281, limits assumed)
T1 construct: also called TRAIL alone; native TRAIL
Experiment: SPR, Dr5 coupled to gold sensor chip, TRAIL flowed 400 nM to 25 nM
Method: The TRAIL receptor protein Dr5 was coupled to a surface of a gold sensor chip by flowing it on the surface of the gold sensor chip for surface resonance plasma (SPR) activated with NHS-EDC, and blocked with ethanolamine. The binding kinetics were analyzed by flowing TRAIL-ATNC dissolved in TBS from 8.33 nM to 0.52 nM by half, and TRAIL from 400 nM to 25 nM by half on the TRAIL receptor-coupled gold sensor chip, respectively. The right channel, which was not coated with Dr5, was used as a control (or reference).

B1: TRAIL receptor protein Dr5 (receptor)
chain: not shown
notes: Purified protein amine-coupled (NHS-EDC) to the SPR chip; The construct is not described
Kd: 0.0583 µM | koff: 0.0015 s⁻¹ | kon: 25700 M⁻¹ s⁻¹
